According to PubChem BioAssay AID743279 (National Center for Advancing Translational Sciences (NCATS), 2014):
Out of some 360,000 compounds screened, about 17,000 (4.7%) were called active. The shares of active, inactive and inconclusive entries below differ from those in the screen. Cut-off read from the data, not from the text of the source: active = activity change below about -50%; inconclusive = mostly about -30% to -49%; inactive = weaker than that.

Experiment: qHTS for Inhibitors of Inflammasome Signaling: IL-1-beta AlphaLISA Primary Screen
Settings: THP-1 LPS/ATP IL-1B secretion, 16 h; at 57.5 µM, hits give low values
Method in brief: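 THP-1 cells pretreated 1 hr with compounds (up to 57.5 uM final), then stimulated with LPS (250 ng/mL final) plus ATP (1.25 mM final); secreted IL-1B measured by AlphaLISA after 16 hr, decreased signal indicating inhibition.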
% is set by controls: 0 for no effect and ±100 for the full control effect.

| Structure (SMILES) | activity change |
| --- | --- |
| O=C(O)C1CC=CCC1C(=O)N1CCN(c2nc(-c3ccccc3)c3ccccc3n2)CC1 (stereo not given) | active: -63.4% |
| Cn1cc(/C=C2/SC(=O)N(CC(=O)Nc3ccc4c(c3)OCO4)C2=O)c2ccccc21 | inconclusive: -45.8% |
| C[C@@H](CN1C2=NC[C@H](Cc3ccccc3)N2C[C@H]1Cc1ccc(O)cc1)NC(=O)CCC1CCCCC1 | inconclusive: -49.8% |
| Cc1ccc(S(=O)(=O)NCC(=O)OC2CCOC2=O)cc1 (stereo not given) | inactive: 14.5% |
| O=C(Nc1ccc(S(=O)(=O)N2CCCCC2)cc1)c1ccccc1Cl | inconclusive: -35.3% |
| COc1ccc(NC(=O)COC(=O)CC2CCCC2)cc1Cl | inactive: -2.38% |
| O=C(NCCCN1CCC(Cc2ccccc2)CC1)c1ccc2nc(N3CCOCC3)sc2c1 | inconclusive: -43.5% |
| Cc1cccc(C2=NN(c3ccc(Br)cc3)[C@@H](C(=O)N3CCOC3=O)[C@@H]2C)c1 | inconclusive: -36.9% |
| COc1ccc(NC(=O)C2Cc3c(-c4ccc5c(c4)OCO5)ccnc3O2)cc1 (stereo not given) | inactive: 10.6% |
| CC1(C)N=C(N)N=C(N)N1c1ccc(OCCCOc2ccccc2)c(Cl)c1 | inconclusive: -49.6% |
| NC(=O)c1ccc(NC(=O)CN2CCN(C(=O)c3ccco3)CC2)cc1 | inconclusive: -30.1% |
| COc1cc(SC)ccc1C(=O)Nc1ccc2c(c1)CCN2S(C)(=O)=O | inconclusive: -30.6% |
| CC(C)CN(C(=O)CN(C)CC(=O)Nc1ccc(Cl)c(C(F)(F)F)c1)c1c(N)n(CC(C)C)c(=O)[nH]c1=O | active: -65.8% |
| O=C(Nc1ccc2c(c1)OCCO2)c1ccc(Cl)c([N+](=O)[O-])c1 | active: -81.9% |
| O=C(NC1CCCCC1)c1ccc(Cn2cc(Cl)cn2)cc1 | inconclusive: -37.5% |
| COc1ccccc1/C=C1\SC(=S)N(CCC(=O)N2CCN(C)CC2)C1=O | active: -58.8% |
| CC(C)C[C@H]1CN([C@@H](Cc2ccc(O)cc2)CN2CCC[C@@H]2CN2C(=O)C(=O)NC[C@@H]2Cc2ccccc2)C(=O)C(=O)N1CC1CCCCCC1 | inconclusive: -33.4% |
| COc1ccc(OC)c(-n2cc3c(=O)n(C)c(=O)n(C)c3c2)c1 | inactive: 33% |
| Cc1cc(C(F)F)n2ncc(C(=O)NCCc3ccccc3Cl)c2n1 | inconclusive: -39.4% |
| COc1cc(/C=N/N=C(N)N)ccc1OCc1ccc(Cl)cc1 | active: -94.1% |
| N#CCC(=O)Nc1ccc(C(=O)N2CCN(S(=O)(=O)c3ccc4ccccc4c3)CC2)cc1 | inconclusive: -48.7% |
| CC(CSc1nc2ccccc2s1)Cn1c(N2CCCC2)nc2c1c(=O)[nH]c(=O)n2C (stereo not given) | inactive: -18.8% |

| Structure (SMILES) | activity change |
| --- | --- |
| CCC(C)c1ccc(OCC(=O)Nc2ccc3c(c2)C(=O)NC3=O)cc1 (stereo not given) | inactive: -6.32% |
| CC1C(=O)N(Cc2cn(CCC3OCCCO3)nn2)CCS(=O)(=O)N1Cc1ccc(-c2ccc(F)nc2)cc1 (stereo not given) | inactive: 28.4% |
| CCOC(=O)c1c(-c2cccs2)csc1NC(C)=O | inactive: -6% |
| O=C(CC1C(=O)NCCN1Cc1cccc(Oc2ccccc2)c1)NCCc1cnccn1 (stereo not given) | inconclusive: -38% |
| COc1ccc(Sc2cnn(-c3ccccc3)c(=O)c2Cl)cc1 | inconclusive: -46.1% |
| C/C(=N\NC(=O)COc1ccc(C(C)(C)C)cc1)c1ccc(-n2ccnc2)cc1 | inconclusive: -34.4% |
| CCO/C(C)=N/n1c2nc3ccccc3nc2c2c(=O)n(CC(C)C)c(C)nc21 | inconclusive: -33% |
| NC(Cc1ccc(C(F)(F)F)cc1)c1csc(Nc2cnccn2)n1 (stereo not given) | inconclusive: -40.2% |
| CC(=O)N1CCN(CCS(=O)(=O)c2cc(Cl)ccc2Cl)CC1 | active: -65.4% |
| O=C(Cc1ccc(Cl)c(Cl)c1)N/N=C/c1cccnc1 | inconclusive: -36.2% |
| O=c1cc(Br)c(O)c(Br)cc1Br | inconclusive: -49.5% |
| CCN1CCN(CCCN(Cc2ccco2)C(=S)Nc2ccc(C)c(Cl)c2)CC1 | inconclusive: -30.5% |
| Fc1ccc(NC(=S)N2N=CCC2c2ccccc2)cc1 (stereo not given) | inconclusive: -30.5% |
| CC(C)=CCC/C(C)=C/CNC(=O)C[C@H]1C[C@H](C(=O)N(C(C)C)C(C)C)[C@@]2(C)c3[nH]c4cc(CCC(=O)N(C)C)ccc4c3CCN2C1=O | active: -66.8% |
| CCOC(=O)c1cnc2c(Cl)c(Cl)ccc2c1N1CCN(C)CC1 | active: -50.1% |
| O=[N+]([O-])c1ccc2cn(-c3ccccc3)nc2c1 | inactive: 0% |
| O=C(c1cc(-c2ccncc2)nc2ccccc12)N1CCN(c2ncccn2)CC1 | inactive: 22.2% |
| O=C(CSc1ncnc2ccccc12)c1cccs1 | inconclusive: -37.6% |
| O=C(NCc1cc(Cl)cc(Cl)c1)c1ccc2nc([C@@H]3O[C@H](CO)[C@H](O)[C@H](O)[C@H]3O)[nH]c2c1 | inconclusive: -36.1% |
| COc1ccccc1-n1cc(C(=O)NCC(=O)N2CCN(c3ccccn3)CC2)c2ccccc2c1=O | inconclusive: -44.4% |
| Fc1ccc(-c2c[nH]c(=S)n2Cc2ccccc2)cc1 | inconclusive: -34.6% |
| NC(=O)c1cc(Cc2ccccc2)sc1NC(=O)c1ccco1 | active: -56% |

| Structure (SMILES) | activity change |
| --- | --- |
| COc1ccc(-c2ccc(SCC(=O)c3cccs3)nn2)cc1 | inconclusive: -44% |
| O=S(=O)(c1ccc(NC(=S)NN=Cc2ccccc2O)cc1)N1CCCCC1 | inconclusive: -32.9% |
| Cc1ccc(CNC(=O)CCS(=O)(=O)c2ccc(Br)s2)cc1 | inactive: 22.1% |
| COCCOC(=O)c1c(C)n(C)c2ccc(OC(=O)c3ccccc3F)cc12 | inactive: 22% |
| COCCn1c(COc2ccc(C)cc2)nc2ccccc21 | inconclusive: -39.2% |
| CCn1ncc(Br)c1C(=O)Nc1sc2c(c1C(N)=O)CCC2 | inconclusive: -31.9% |
| CCOC(=O)/C=C1\SCC(=O)N1Cc1nnc(-c2ccccc2Br)o1 | inactive: -3.76% |
| Cc1ccc(S(=O)(=O)Nc2c(NC3CCCCC3)c3ccccc3oc2=O)cc1 | inconclusive: -32.4% |
| O=C(O)/C=C/C(=O)NCc1cn(-c2ccccc2)nc1-c1cccc(Br)c1 | active: -57.8% |
| CCC(=O)N1CCc2cc(OC)c(OC)cc2C1COc1ccc(F)cc1 (stereo not given) | inconclusive: -32.4% |
| COc1ccccc1CSc1ncc(-c2ccc([N+](=O)[O-])cc2)[nH]1 | inconclusive: -44% |
| CCCCNC(=S)N(C)/N=C/c1ccc(OCC(=O)Nc2ccc(OC)cc2)c(OC)c1 | inconclusive: -38.8% |
| CCCC1C(=O)Nc2ccccc2N1C(=O)c1cccc(C)c1 (stereo not given) | inactive: -18.5% |
| Cc1ccc(C(=O)C(C)OC(=O)c2cc(=O)[nH]c3ccccc23)cc1 (stereo not given) | inactive: 6.48% |
| Cc1ccc(-c2nc3ccccn3c2NCc2ccc3c(c2)OCO3)cc1 | inconclusive: -32.3% |
| CC(C)(C)C1CCc2onc(C(=O)Nc3ccc(F)cc3F)c2C1 (stereo not given) | inconclusive: -42.1% |
| CN(CC1CCCN(CCc2cccc(C(F)(F)F)c2)C1)C(=O)c1ccc2nc[nH]c2c1 (stereo not given) | inconclusive: -31.5% |
| CC(=O)Nc1ccccc1C(=O)C(=O)Nc1ccc(C(=O)N2CCOCC2)cc1 | inactive: -2.75% |
| Cc1ccc(NC(=O)C2=CN3CCS(=O)(=O)N=C3C=C2)cc1 | inactive: -3.05% |
| Cc1occc1C(=O)Nc1cccc([N+](=O)[O-])c1C | inconclusive: -42.6% |
| CCOC(=O)c1c(C)n(C)c2ccc(OCCN(C)C)cc12 | inconclusive: -37.7% |
| CCCCNC(=O)c1cc(-c2ccccc2)sc1N | inconclusive: -46.6% |

| Structure (SMILES) | activity change |
| --- | --- |
| Cc1cc(O)c(C(C)C)cc1NC(=S)Nc1cc(C(C)C)c(O)cc1C | active: -55% |
| CCCN1C2CCCC1CC(NC(=S)Nc1cccc(C)c1)C2 (stereo not given) | inconclusive: -31.4% |
| CN1CCN(C(=O)c2cc3nc(-c4ccc(Cl)cc4)cc(C(F)(F)F)n3n2)CC1 | inconclusive: -46.7% |
| Cc1cc(C)n(-c2nc(Nc3ccccc3C(F)(F)F)nc(-n3nc(C)cc3C)n2)n1 | active: -54.1% |
| COc1ccc2c(c1)c(=O)oc1c(C)c(OC(C)C(=O)N[C@@H](Cc3c[nH]c4ccc(O)cc34)C(=O)O)ccc12 (stereo not given in full) | inactive: 12.2% |
| COc1ccc(S(=O)(=O)N2CCN(c3cnccn3)CC2)cc1 | inconclusive: -36.7% |
| CC(C)NC(=O)c1ccc(-c2ccccc2C(F)(F)F)o1 | inconclusive: -31.8% |
| COc1ccc(Nc2ccc3c(c2)=NC2(CCCCC2)[N+]=3[O-])cc1 | active: -97% |
| N#C/C(=C/c1ccccc1[N+](=O)[O-])c1nc(C2CC2)cs1 | inconclusive: -33.8% |
| CN(CCC#N)C(=O)CSc1ncnc2sc(-c3ccccc3)cc12 | inconclusive: -49.9% |
| COc1ccc(NS(=O)(=O)c2cn(C)c(=O)n(C)c2=O)cc1 | inactive: 1.57% |
| Cc1ccc(C(=O)Nc2ccc(O)cc2C(=O)O)cc1 | inconclusive: -31% |
| S=C(NCc1ccc(Cl)cc1)NC12CC3CC(CC(C3)C1)C2 | inconclusive: -41.8% |
| CNCCCCOc1ccccc1-c1ccccc1 | inconclusive: -48.4% |
| CCOC(=O)c1c(N)ssc1=S | inactive: -18.7% |
| CCOc1ccc(NC(=O)C2CCC(CNc3c(N4CCCCC4)c(=O)c3=O)CC2)cc1 (stereo not given) | inconclusive: -48.1% |
| Cc1cc(Cl)ccc1NC(=S)NCc1ccco1 | inactive: -10.5% |
| Cc1[nH]c2ccc(C(=O)N3CCN(c4ccccc4Cl)CC3)cc2c1C | inactive: -9.86% |
| Nc1ncnc2c1ncn2[C@@H]1O[C@H](CNCc2ccccc2OCc2ccc(Cl)cc2Cl)[C@@H](O)[C@H]1O | inconclusive: -44.8% |
